# In ChEMBL document CHEMBL1201862, “PubChem BioAssay data set” (2004):
#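 Cultured in 96-well plates, cells were exposed to test compound for 48 hours across five concentrations. GI50 is the concentration that inhibits growth by half.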 Activity calls are given as the source filed them. Rule as the data show it: active = GI50 up to about 1.1 µM and inactive = higher.
# System: NCI-H322M
# Assay: growth of human tumour cells (NCI), 48 h
row,SMILES,GI50
1,C=CCn1c(=O)n(CC=C)c(=O)n(CC=C)c1=O,inactive: > 100 µM
2,CCc1ncc(CO)n1Cc1cccc2ccccc12,inactive: > 100 µM
3,Cc1ccc2c(c1C)-c1c(ccc(C)c1C)C(=O)C2=O,inactive: 1.52 µM
4,c1ccc(CN2CCc3[nH]c4ccccc4c3C2)cc1,inactive: 22.1 µM
5,CCCCCCCCCCCCCCCC[N+](C)(C)Cc1ccc(F)cc1,inactive: 12.4 µM
6,O=c1c2cc([N+](=O)[O-])cnc2sn1-c1ccc([N+](=O)[O-])cc1,inactive: 34 µM
7,CCCc1cn2c(/C=N/NC(=N)N)c(-c3ccc(Cl)c([N+](=O)[O-])c3)nc2s1,inactive: 1.76 µM
8,Oc1ccc2c3c1OC1c4[nH]c5c(c4CC4(O)C(C2)N(CC2CC2)CC[C@]314)CC1(O)C2Cc3ccc(O)c4c3[C@@]1(CCN2CC1CC1)C5O4 (stereo not given in full),inactive: 34.5 µM
9,COc1cc(S(=O)(=O)Nc2nc(-c3ccc(N4C(=O)/C(=C/C=C/c5ccccc5)N=C4c4ccccc4)cc3)cs2)ccc1Cl,inactive: > 100 µM
10,COC(=O)CCc1cc(O)c2c(c1)C(C(=O)OC)C(c1ccc(O)c(O)c1)O2 (stereo not given),inactive: 44.1 µM
11,CCOC(=O)/C=C(/C(=O)OCC)n1ccc(=O)n(/C(=C/C(=O)OCC)C(=O)OCC)c1=O,inactive: 18.7 µM
12,O=C(CCC(=O)Nc1ccc(Cl)cc1)CC(=O)c1ccc2ccccc2c1,inactive: > 100 µM
13,CCOC(=O)/C=C(/C(=O)OCC)n1cc(C)c(=O)n(Cc2cn(CCCCOC(C)=O)nn2)c1=O,inactive: > 100 µM
14,O=C1CCCC2=C1CC1=C(CCCC1=O)N2c1cccc2ccccc12,inactive: > 100 µM
15,CC(=O)Oc1c(OC(C)C)c(C)c(O[Si](C(C)C)(C(C)C)C(C)C)c2[nH]c3ccccc3c12,inactive: > 100 µM
16,COc1ccc(C2S/C(=C\c3cccc([N+](=O)[O-])c3)C(=O)N2NC(=O)Cc2ccccc2)cc1 (stereo not given),inactive: > 100 µM
17,COc1ccc(C2Oc3ccc(Cl)cc3C=C2[N+](=O)[O-])cc1OC (stereo not given),inactive: 1.47 µM
18,C[C@H]1ON2CCC[C@@H]2[C@@H]1C(=O)N1C2CC3CCC2(CS1(=O)=O)C3(C)C (stereo not given in full),inactive: > 100 µM
19,CCOC(=O)C(=O)/C(=C/NC(=S)Nc1ccc(Cl)c(Cl)c1)C(=O)OCC,inactive: > 100 µM
20,C=CCNC1=C2C[C@@H](C)C[C@@H](OC)[C@H](OC(=O)CN(C)C)[C@H](C)/C=C(\C)[C@@H](OC(N)=O)[C@H](OC)/C=C\C=C(/C)C(=O)NC(=CC1=O)C2=O,inactive: 3.57 µM
21,S=P1(Sc2ccccc2)Oc2ccc3ccccc3c2-c2c(ccc3ccccc23)O1,inactive: > 53.7 µM
22,Cc1cn(C2CC(n3cncn3)C(C(C)O)O2)c(=O)[nH]c1=O (stereo not given),inactive: > 100 µM
23,Cc1cnc(-c2c[nH]c3ccccc23)nc1-c1c[nH]c2ccccc12,inactive: 12.3 µM
24,N#Cc1c(O)nc2nn3c4ccc5ccccc5c4nnc3c2c1-c1ccc(Cl)cc1,inactive: 3.91 µM
25,CCSC12CC3c4cccc5c4C(CN5C(=O)c4ccccc4)CC3(O1)N(C)C2=O (stereo not given),inactive: 35.8 µM
26,CCCCC/C=C\C=C\CCCCCCCCC(=O)OC,inactive: > 100 µM
27,COc1cccc2c(NNc3ccc(Cl)cc3)c3ccc([N+](=O)[O-])cc3nc12,inactive: 16.1 µM
28,Cc1cc(C)c(C(=O)c2nnc3ccccc3c2N)c(C)c1,inactive: 18.3 µM

row,SMILES,GI50
1,CC(C)(C)c1cc(C(O)(C(F)(F)F)C(F)(F)F)c2c(c1)C(C(F)(F)F)(C(F)(F)F)OC(c1ccccc1)(C(C)(C)C)N2 (stereo not given),inactive: 9.25 µM
2,COC1(OC)C2(Cl)C3=CCCC=C3C1(Cl)C(Cl)=C2Cl,inactive: 68.7 µM
3,O=[N+]([O-])c1ccc(-c2ccc(-c3csc(Nc4ccccc4)n3)o2)cc1,inactive: 56.8 µM
4,CCCCCCCC(=O)OCC1OC(n2cc(F)c(=O)[nH]c2=O)C(NC(=O)OCc2ccccc2)C(O)C1O (stereo not given),inactive: > 100 µM
5,O=C(N/N=C(/CCN1CCCC1)CC(c1ccccc1)c1c(O)c2ccccc2oc1=O)c1ccncc1 (stereo not given),inactive: > 100 µM
6,CCCCCCCCCC[C@H](O)[C@H](O)CC[C@@H](O)[C@H]1CC[C@@H]([C@H]2CC[C@H](CCCCCCC[C@@H](O)CC3=C[C@H](C)OC3=O)O2)O1,inactive: 4.7 µM
7,Oc1cccc(-c2cc(=S)ss2)c1,inactive: 21.3 µM
8,O=C(Nc1nnc(-c2ccccc2)o1)C(SC(=S)N1CCCC1)c1ccccc1 (stereo not given),inactive: 22.8 µM
9,COc1cccc(NC(=O)c2c(SC)c(C#N)c(=O)n(N)c2N)c1,inactive: 45.1 µM
10,CC(C)(C)c1ccc(C(C)(C)C)c(N2C(=O)C3ON=C(c4ccc([N+](=O)[O-])cc4)C3C2=O)c1 (stereo not given),inactive: 15.8 µM
11,CCC(C)C1(O)OC2CC3(C)OC(=CC3=O)/C(C)=C\C3OC(=O)C1(C)C32 (stereo not given),inactive: 22.4 µM
12,CCOC(=O)C1N(S(=O)(=O)c2ccc(C)cc2)CCC12c1ccccc1N(C(C)=O)C2C(/C=C/C(=O)OC)=C/C(=O)OC (stereo not given),inactive: > 100 µM
13,COC(=O)c1ccccc1C1CN=NC12Cc1c(ccc(C)c1C)C2=O (stereo not given),inactive: > 100 µM
14,CN1CCN(Cc2cc3c(nn2)-c2ccccc2C3=O)CC1,inactive: 61.4 µM
15,CC(=O)O[C@H]1[C@@H](OC(C)=O)C(C)(C)/C=C/[C@H](C)C(=O)[C@@]2(OC(C)=O)C[C@@](C)(OC(C)=O)[C@H](OC(C)=O)[C@@H]2[C@H]2OC(=O)CC[C@@]2(OC(=O)c2ccccc2)[C@@H]1OCC(C)C,inactive: 81.8 µM
16,Nc1nc(O)nc2snnc12,inactive: > 100 µM
17,NC(=O)NC(=O)CCC(NS(=O)(=O)c1ccccc1)C(=O)NC(N)=O (stereo not given),inactive: > 100 µM
18,Cc1cc(S(=O)(=O)Nc2n[nH]c(-c3ccc(Cl)cc3)n2)c(SSc2cc(Cl)c(C)cc2S(=O)(=O)Nc2n[nH]c(-c3ccc(Cl)cc3)n2)cc1Cl,inactive: 28 µM
19,Cc1ccc(-c2c(C#N)c(-c3ccccc3)n(NS(=O)(=O)c3ccc(C)cc3)c(=O)c2C#N)cc1,inactive: > 100 µM
20,Cc1c(O)c(OC2OC(CO)C(O)C(O)C2O)cc2c1CC[C@@H]1C2(C)C(=O)C[C@]2(C)[C@@H]([C@@](C)(O)C(O)CCC(C)(C)O)[C@H](O)C[C@@]12C (stereo not given in full),inactive: > 100 µM
21,C=C1CC2CC[C@@]34C[C@H]5O[C@@H]6C(O[C@H]7CC[C@H](CC(=O)OC8[C@H](C)C9OC%10C[C@]%11(C[C@@H]%12O[C@]%13(C[C@H](C)[C@@H]%14O[C@H]([C@H](O)C[C@H](O)CO)C[C@@H]%14O%13)C[C@H](C)[C@@H]%12O%11)OC%10CC9O[C@H]8C[C@H]8O[C@H](CC[C@@H]1O2)C[C@@H](C)C8=C)O[C@H]7[C@@H]6O3)[C@@H]5O4 (stereo not given in full),active: 0.00155 µM
22,Cc1cc2c([nH]c3ccccc32)c(O)c1-c1c(C)cc2c([nH]c3ccccc32)c1O,inactive: 16 µM
23,CC(=O)Nc1cc(Nc2cc(O)nc(O)n2)ccc1C,inactive: > 100 µM
24,O=C1/C(=C\c2c(-c3ccccc3)[nH]n(-c3ccccc3)c2=O)C(c2ccccc2)=NN1c1ccccc1,inactive: > 100 µM
25,BC(=O)NC(CC(C)C)C(=O)NC1c2ccsc2C(=O)C1O.CN(C)C (stereo not given),inactive: > 100 µM
26,c1cc(-c2sc(-c3ccncc3)c(-c3ccncc3)c2-c2ccncc2)ccn1,inactive: 15.8 µM
27,CN(C)Cc1cc(C(=O)/C=C/c2ccc(F)cc2)cc(CN(C)C)c1O,inactive: 31.8 µM
